According to publication PMC12136788:
This is one part of the list.

T1: UNK ZnF1-3 (human, UniProt Q9C0B0 31-174)
T1 sequence: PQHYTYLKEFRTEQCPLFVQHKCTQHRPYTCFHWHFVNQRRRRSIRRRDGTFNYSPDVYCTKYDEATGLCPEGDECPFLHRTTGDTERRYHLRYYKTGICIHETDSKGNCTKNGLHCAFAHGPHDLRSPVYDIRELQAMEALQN

B1: chr6:114281168:114281169:-_ENSG00000196591_ENST00000368632|hu_hu|hu_hu_hu_mus_True|38_108 (ssRNA)
RNA: GGGAGUUCUACAGUCCGACGAUCUUCCAUUUUUCUGUAUAAACCAUAAUUUAGCAGCAAGUUAUGAGUCAUCCGGAUUCUAUGAGGCUUCAUGGGAUGACCCUGUCCAUAAUAAUAAUUGCCAAUAUCACCAUCAUAGUAGUACAACAGAGGAUUGAGCAUCA
B2: chr13:100201205:100201206:-_ENSMUSG00000052727_ENSMUST00000064762|mus_hu|FALSE|FALSE (ssRNA)
RNA: GGGAGUUCUACAGUCCGACGAUCUUCAGUGAUGUGAAGCACGCCUGCACCCACUGUAGGGUGAUCUGGAGACUGUCGACUGAAGUCCAUAGCAAGGGAUUGCUCAGGAGAUUCUUGGCCAAAUUCAAUAGACAUUGAGGACUGCAACAGAGGAUUGAGCAUCA
B3: chr4:48472932:48472933:-_ENSMUSG00000028345_ENSMUST00000030030|mus_hu|motif|central (ssRNA)
RNA: GGGAGUUCUACAGUCCGACGAUCAGUUGACGCAUUUGCCAGGGAGACCAUGAUAUCAGACAGUGUUAAAUUCAGUAAGAGAUGAUCGGUGUUAUUGGAGAGAACUGUGCAAUGCUUGAUGCUUUUAUUUGGCUCUUUCCUUUUCAACAGAGGAUUGAGCAUCA
B4: chr1:66486067:66486068:+_ENSMUSG00000015222_ENSMUST00000077355|mus_mus|FALSE|FALSE (ssRNA)
RNA: GGGAGUUCUACAGUCCGACGAUCUCGUCCAGGUCCCAAGUGUCAAUAACUUAAUUGCGUCUUUCUUCCCAUUUAUACAAAAUAACACUUUAAAAAAUGUGUUUCUUACAUGCUCUUUCCUUCCUGCAAUCAGACUCCUUGAUUCAACAGAGGAUUGAGCAUCA
B5: chr17:74801258:74801259:+_ENSMUSG00000024069_ENSMUST00000024870|mus_hu|motif|central (ssRNA)
RNA: GGGAGUUCUACAGUCCGACGAUCGUUUAUUACACCAAAGAGCAGUAUCUUCCAGGACCUUCGGUCAGCUGCUACAAGUCGGAAUUCCCGUAACAACUUGCCAAAAAAGGAUCUUUGUGGUUUUCGAAAGAGAUGAAUUGUCCCCAACAGAGGAUUGAGCAUCA
B6: chr1:23884524:23884525:-_ENSG00000117318_ENST00000374561|perfect_dup|motif|central (ssRNA)
RNA: GGGAGUUCUACAGUCCGACGAUCUUUAAUAUACAUCGCAUUGUUACAGAAAGUCACCUUCCUGUAAAAAAGGUACAAAACCGGUAUACUCUAUUAUAGAGUUCAUAAAUCAGGGCAACAGAACCUUUCUCCAAGGAGACCAGACAACAGAGGAUUGAGCAUCA
B7: chr3:150285740:150285741:+_ENSG00000144895_ENST00000460851|hu_mus|FALSE|FALSE (ssRNA)
RNA: GGGAGUUCUACAGUCCGACGAUCAGCUUUUUUAUUCCACAGCAUUGUAACCUUAUCAGCUUUAAAGAAGCUUUUAUUGGCCAGUGCUGCCUGAGGUCCGGCAAAGUUGGGAUACUGAUACAGUCGAACAAAUGAGGGGGCACCCAACAGAGGAUUGAGCAUCA
B8: chr19:12019223:12019224:+_ENSMUSG00000046139_ENSMUST00000061618|mus_mus|motif|central (ssRNA)
RNA: GGGAGUUCUACAGUCCGACGAUCUGUGAAGGGAAGGUAGGAAAGGCUCAGUGGAGACAGUCAGUAGAUGGUAGAAGGAAGCGGGGGACUGUCACUGGGGAGCAGCUGGUGGAGCCCGAGGCCACAAAAUGAGAAGAAAUGGAGCAACAGAGGAUUGAGCAUCA
B9: chr16:23109248:23109249:+_ENSMUSG00000022884_ENSMUST00000115341|mus_mus|motif|central (ssRNA)
RNA: GGGAGUUCUACAGUCCGACGAUCAAGAGCCAAAAUUACCUUUUGGAUCUGUUGAGCCAGUUCUCUGGUGGGGGCCAAUACGGGUGCUUGGGUCUCCUUGAACUCAAUCUCCAACUGUUGCAGGAUGGAAAUAGCAAAUGUGGCCAACAGAGGAUUGAGCAUCA
B10: chr12:48538843:48538844:+_ENSG00000152556_ENST00000359794|hu_hu|FALSE|FALSE (ssRNA)
RNA: GGGAGUUCUACAGUCCGACGAUCCUCUUUGAUUUUCCCAGACAUCCAGUUCAUAGCCUUGGCGCCCAUCUUAGUGGCAAAAUUCCUAUCAAAUGGGGUUGGGCUCCCACCCUGCUGCAUGUGACCAAGCACAUUCUUCCUGCUCAACAGAGGAUUGAGCAUCA
B11: 15599485_15605049_2191_CDS_ENSMUSG00000021733_ENSMUST00000057015|mouse|control|control (ssRNA)
RNA: GGGAGUUCUACAGUCCGACGAUCAGAAACAGUAAGGUUGCCCCAGGAAACACUGUAUGCUGUUAUAUUCUUCCUCUUCCACAGUUCUAGAGUUUCGUUGCUAGGGUUAGAUGGCUCAGCACAUACACAUGUGUAACUGGUCAACAACAGAGGAUUGAGCAUCA
B12: chr6:106732989:106732990:-_ENSMUSG00000005362_ENSMUST00000049675|mus_mus|FALSE|FALSE (ssRNA)
RNA: GGGAGUUCUACAGUCCGACGAUCACUGCCGAUUUUAAGGAGCUGAAUUCUCAAUACAUCAUCAAUAGGAAGACAAGCAGCUACUCUGUAAGAAAAGUCUAUUGGAUUUUCAGGAAGAGAAUCAUCUUUGAGAUUUUCAUCCCACAACAGAGGAUUGAGCAUCA
B13: chr14:39627603:39627604:-_ENSG00000182400_ENST00000330149|hu_hu|FALSE|FALSE (ssRNA)
RNA: GGGAGUUCUACAGUCCGACGAUCGAACUUCAUGAUAUCUAACUCAUCCUUGAACCUUGCAGUAUCUUUUGUAAACCUUUCUAUCAAUCCUUGUCCCACUCGAAACCCCAUGUUUUCCAGCUUAGUAAUACAUCGUCCGUUUUCCAACAGAGGAUUGAGCAUCA
B14: chr12:48362563:48362564:+_ENSG00000134291_ENST00000256686|hu_hu|hu_hu_hu_mus_False|8_28 (ssRNA)
RNA: GGGAGUUCUACAGUCCGACGAUCUCCGUCAAGCCCUUCGAUAGACCCUUGCGGGGGAAACUGUAAUCACUUUGUAUGGGGAAGGAAAAGAAACGCCAAAAACUUUCUUUCUUUCUUGGGUGGGGUGUCCCAGGCCUGGGAGGUCAACAGAGGAUUGAGCAUCA

The binders below were run against T1, UNK ZnF1-3 (assay: nsRBNS (natural sequence RNA bind-n-seq); RBNS binding buffer (assumed for nsRBNS): 25 mM Tris pH 7.5, 150 mM KCl, 3 mM MgCl2, 0.01% Triton X-100, 500 ug/ml BSA, 20 U/ml SUPERase-In, 4 C; UNK is unkempt and MSI1 is Musashi-1; names of the RNAs are library labels; protein concentration not given here; high values mean tight binding).
In the case of B1, the binding signal is reported as 0.921 enrichment R.
For B2, the binding signal was 1.08 enrichment R.
With B3 the binding signal was 1.02 enrichment R.
For B4, the binding signal was 1.08 enrichment R.
In the case of B5, the binding signal is reported as 0.86 enrichment R.
Work on B6 yielded a binding signal of 0.905 enrichment R.
For B7, the binding signal was 1.06 enrichment R.
B8 gave a binding signal of 2.37 enrichment R.
In the case of B9, the binding signal is reported as 1.66 enrichment R.
B10 gave a binding signal of 0.813 enrichment R.
B11 showed a binding signal of 0.858 enrichment R.
For B12, the binding signal was 0.839 enrichment R.
With B13 the binding signal was 0.643 enrichment R.
B14 showed a binding signal of 1.38 enrichment R.
